Laboratory results reported in publication PMC4336329 (PLoS ONE, 2015).
The campaign covered roughly 310,000 compounds. About 14,000 (4.5%) showed an effect of 50% or more. Effects have a minus sign here. The list shows a part of the results.

Target: human ether-à-go-go-related gene (hERG) potassium channel (human, UniProt Q12809)
Assay: primary screen, population patch clamp on CHO cells stably expressing hERG
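Also: peak tail current of the secondary pulse compared with the same well before compound.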

human ether-à-go-go-related gene (hERG) potassium channel, sequence (Q12809 whole entry, looked up): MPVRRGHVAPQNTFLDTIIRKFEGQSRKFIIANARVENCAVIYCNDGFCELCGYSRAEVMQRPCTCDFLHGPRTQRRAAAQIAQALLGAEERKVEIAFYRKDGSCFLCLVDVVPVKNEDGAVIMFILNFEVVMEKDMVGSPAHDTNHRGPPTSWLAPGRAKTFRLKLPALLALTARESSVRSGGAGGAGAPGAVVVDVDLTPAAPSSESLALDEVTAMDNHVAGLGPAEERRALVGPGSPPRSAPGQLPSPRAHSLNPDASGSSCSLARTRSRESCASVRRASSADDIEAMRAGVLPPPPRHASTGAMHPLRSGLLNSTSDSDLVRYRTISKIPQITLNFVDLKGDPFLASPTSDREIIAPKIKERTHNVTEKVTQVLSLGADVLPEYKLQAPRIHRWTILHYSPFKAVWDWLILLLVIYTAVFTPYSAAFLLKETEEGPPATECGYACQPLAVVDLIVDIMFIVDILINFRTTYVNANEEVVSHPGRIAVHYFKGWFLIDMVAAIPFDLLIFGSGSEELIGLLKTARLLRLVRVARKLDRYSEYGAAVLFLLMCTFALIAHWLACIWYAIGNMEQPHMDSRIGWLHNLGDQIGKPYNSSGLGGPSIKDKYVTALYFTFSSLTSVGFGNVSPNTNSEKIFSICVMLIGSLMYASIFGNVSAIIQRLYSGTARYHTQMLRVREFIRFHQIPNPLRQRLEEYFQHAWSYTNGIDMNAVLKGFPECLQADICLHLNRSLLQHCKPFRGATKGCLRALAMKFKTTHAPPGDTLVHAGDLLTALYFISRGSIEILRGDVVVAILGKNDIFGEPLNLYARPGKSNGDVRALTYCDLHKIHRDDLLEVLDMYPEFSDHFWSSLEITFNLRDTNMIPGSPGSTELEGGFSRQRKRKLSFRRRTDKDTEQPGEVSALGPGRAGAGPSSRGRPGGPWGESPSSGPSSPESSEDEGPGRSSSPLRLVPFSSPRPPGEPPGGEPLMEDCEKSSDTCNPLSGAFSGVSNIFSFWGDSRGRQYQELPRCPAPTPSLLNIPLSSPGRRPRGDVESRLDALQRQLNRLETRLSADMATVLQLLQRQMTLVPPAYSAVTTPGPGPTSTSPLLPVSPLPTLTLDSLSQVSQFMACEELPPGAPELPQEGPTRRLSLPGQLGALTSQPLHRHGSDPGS

Row | Structure (SMILES) | hERG current change (%, negative = inhibition) at 10uM [%]
1 | O=C(O)c1cccc2c1-c1ccccc1/C2=N\Nc1ccccc1 | 25.9
2 | COc1ccc(CNC(=O)[C@@H](NC(=O)C2CCN(C(=O)[C@@H](N)Cc3ccccc3)CC2)C(C)C)cc1 | 0.905
3 | CCC(C)N(C(=O)COC(=O)c1cn(CC)c2nc(C)ccc2c1=O)C1CCS(=O)(=O)C1 (centres unmarked) | 21.4
4 | CCCCN1C(=O)NC(=O)C2(Cc3cc(C)ccc3N(C)C2)C1=O (centres unmarked) | 0.769
5 | COC(=O)C1(Cc2cc(-c3cccc(Br)c3)no2)CCN(C(=O)OC(C)(C)C)CC1 | -4.92
6 | COc1ccc(/C=N/NC(=O)CSc2nnc(C)n2-c2ccccc2)c(OC)c1OC | 13.8
7 | Cc1[nH]c2ccccc2c(=O)c1CN1CCCCCC1 | -7.41
8 | Fc1ccccc1Oc1nc(-c2ccncc2)nc2ccccc12 | 10.1
9 | CCCCC(=O)Nc1cccc(NC(=O)c2cccc(Br)c2)c1 | 0.0981
10 | CCN1C(=O)[C@H]2[C@@H](c3ccc(-c4ccc(F)cc4)cc3)N3CCCC[C@@]3(C(=O)OC)[C@H]2C1=O.O=C(O)C(F)(F)F | 3.9
11 | CC(C)Cc1nc(SCC(=O)N2CC(C)OC(C)C2)c2c(=O)n(C)c(=O)n(C)c2n1 (centres unmarked) | -5.3
12 | O=C(NCCO)C1CCN(C(=O)c2ccc(-c3ccccc3)cc2)CC1 | 15.1
13 | O=C(CCc1nc(-c2ccccc2Cl)no1)NCc1ccco1 | 2.62
14 | CCN(C(=O)Cn1nc(C(=O)O)c2ccccc2c1=O)C1CCCCC1 | -6.42
15 | Cc1ccccc1OCCCC(=O)Nc1ccc(N2CCOCC2)cc1 | -1.97
16 | C[C@@H](NC(=O)[C@@H]1Cc2ccccc2CN1)C(=O)Nc1ccc2c(c1)OCO2 | -1.88
17 | NC(=O)c1nsc(C(=O)N(CC(=O)NC2CCCCC2)c2ccc(Cl)cc2)c1N | -8.62
18 | CSc1nnc(-c2nnc(SC)n2-c2ccccc2)n1-c1ccccc1 | -9.96
19 | COc1ccccc1N1CCN(CC(=O)NC(=O)NCc2ccco2)CC1 | -0.631
20 | COc1ccc(/C=C/C(=O)c2ccc(C)c([N+](=O)[O-])c2)cc1O | 14.3
21 | COC(=O)c1cc(N=Nc2sc(N)nc2C)cc(C(=O)OC)c1 | -27.2
22 | Cc1cc(CC(=O)O)c(C)cc1CC(=O)O | -1.77
23 | COCCN(C(=O)CCC(=O)Nc1cc(C)on1)C(C(=O)NC(C)(C)C)c1ccccc1Cl (centres unmarked) | 22.6
24 | CCC1C(c2ccccc2)N(C)C(c2ccccc2)CC1(O)c1ccccc1.Cl (centres unmarked) | 11.3
25 | Cc1c(NC(=O)CN2CCN(c3ccc(F)cc3)CC2)c(=O)n(-c2ccccc2)n1C | 0.675
26 | CCN(CC)S(=O)(=O)c1cccc(C(=O)NCCCN2CCOCC2)c1 | 9.9

Row | Structure (SMILES) | hERG current change (%, negative = inhibition) at 10uM [%]
27 | Nc1cnc(Nc2ccc(Br)cc2)nc1N.O=S(=O)(O)O | -8.72
28 | O=C(Nc1cccnc1)c1cc(F)cc(F)c1 | 13.4
29 | CCCc1nc(SCC(=O)Nc2cc(C)on2)c2ccccc2n1 | 1.5
30 | COc1ccc(C(=O)CCN2CCN(c3ccc(OC)cc3)CC2)cc1 | -73.1
31 | COc1ccc(C2C(C#N)=C(N)Nc3nc4ccccc4n32)cc1 (centres unmarked) | 0.0675
32 | Cc1c(C)c2ccc(OC(C)C(=O)NC3CCN(Cc4ccccc4)CC3)cc2oc1=O (centres unmarked) | -54.2
33 | O=C(O)CCc1cccnc1 | 7.55
34 | CCOC(=O)c1cccc(NC(=O)c2ccc(NC(=O)C3CCCO3)cc2)c1 (centres unmarked) | -22.1
35 | Cc1oc2c(O)c(O)ccc2c(=O)c1-c1ccc(Cl)cc1 | -11.3
36 | Cc1c(NC(=O)c2ccc(=O)oc2)c(=O)n(-c2ccccc2)n1C | 11.8
37 | O=C(CCc1nc(-c2ccccc2F)no1)NCCc1ccccc1Cl | -14.8
38 | COc1ccc(S(=O)(=O)N2CCCC2C(=O)NCc2ccccc2Cl)cc1 (centres unmarked) | -12.4
39 | O=C(O)c1ccc(CSc2nnc(COc3ccccc3)o2)cc1 | 8
40 | Cc1ccc(C)c(-n2nnnc2SCC(=O)NNC(=O)c2ccco2)c1 | 3.28
41 | C=CCc1ccccc1OCC(=O)OCCNC(=O)c1cccnc1.Cl | 5.92
42 | COc1ccc(/C=C2\C(=O)NCC(=O)N2Cc2ccccc2)cc1 | 4.69
43 | Cc1cccc(/C=N\NC(=O)c2ccccc2-n2cccc2)c1 | 15.3
44 | O=C(CSc1nnc(Cn2c(=O)sc3ccccc32)n1CCc1ccccc1)N1CCOCC1 | -5.81
45 | CCOC(=O)c1sc(=S)n(-c2ccc3c(c2)OCO3)c1N | 10.3
46 | O=C(COc1cccnc1[N+](=O)[O-])N1CCN(S(=O)(=O)c2ccccc2)CC1 | -12.2
47 | COc1ccccc1N1CCN(C(=O)C2CCN(S(=O)(=O)c3ccc(Cl)cc3)CC2)CC1 | -39.5
48 | Cc1nc2ccc(C(=O)Nc3cccc([N+](=O)[O-])c3)cc2s1 | 3.71
49 | Cc1nn(CC(=O)NCCc2cccs2)c(=O)c2nn(-c3ccccc3)c(C)c12 | -7.67
50 | CCOc1ccc(NC(=S)N(C)C)cc1 | 10.8
51 | CCCCn1nc(C)c(C(=O)O)c1Cl | 13.2
52 | Cc1nn(-c2ccccc2)c(N2CCCC2)c1C=O | 2.49

Row | Structure (SMILES) | hERG current change (%, negative = inhibition) at 10uM [%]
53 | Cc1ccsc1C(=O)OCc1nc2ccccc2c(=O)[nH]1 | -14.2
54 | COc1ccc(NC(=O)CN(C)C(=O)c2cccc(S(=O)(=O)N3CC4(C)CC3CC(C)(C)C4)c2)cc1 (centres unmarked) | 7.23
55 | Nc1cccc2c1C(=O)N(C(=O)c1cccc(S(=O)(=O)N3CCCC3)c1)C2=O | -0.76
56 | COc1ccc(Cl)cc1N(CC(=O)N1CCN(Cc2ccccc2)CC1)S(C)(=O)=O | -7.28
57 | COc1ccc(N(CC(=O)NCCc2ccccc2)C(=O)c2csnn2)cc1OC | 11.1
58 | Cc1ccc(OCC(=O)N(Cc2cccc(F)c2)C2CCS(=O)(=O)C2)cc1 (centres unmarked) | -16.8
59 | CCOC(=O)C1=CC[C@]2(C)c3c(c4ccccc4n3C)C(=O)C1N2C | 21.7
60 | Br.Cc1c(-c2ccc(O)cc2)nc2nc(-c3ccccc3)c(-c3ccccc3)nn12 | 7.29
61 | CSc1sc(C)cc1C1C(C#N)=C(N)N(c2cccnc2)C2=C1C(=O)CCC2 (centres unmarked) | -21.7
62 | CCC(NC(=O)CCc1c(C)c2cc3c(-c4ccccc4)coc3cc2oc1=O)C(=O)O (centres unmarked) | 6.68
63 | CCOC(=O)C1=C(CSc2nc(-c3ccncc3)ccc2C#N)OC(N)=C(C#N)C1c1cccnc1 (centres unmarked) | -47.2
64 | COc1ccccc1-n1cnnc1SCC(=O)Nc1ncc(Cl)cc1Cl | -0.265
65 | CCc1ccc(CN2CCC(C(=O)Nc3cccc(-c4nnc(C)s4)c3)CC2)o1 | -33.6
66 | COc1ccc(N2C(=O)NC(NS(=O)(=O)c3ccc(NC(C)=O)cc3)(C(F)(F)F)C2=O)cc1 (centres unmarked) | 10.3
67 | O=C(CS(=O)(=O)c1ccc(F)cc1)NCc1ccccc1 | 24.5
68 | Cc1ccc(C)c(NC(=O)NNC(=O)c2cc3occc3[nH]2)c1 | 18.3
69 | CCOC(=O)N1CCC(n2c(SCC(=O)c3ccccc3)nc3ccsc3c2=O)CC1 | -10.1
70 | CC(=O)N1CCN(Cc2nc3cc(Cl)ccc3c(=O)[nH]2)CC1 | -31.7
71 | O=C(CSc1nnc(CCCOc2ccc(Cl)cc2Cl)o1)Nc1ccc(C(=O)O)cc1 | 15.2
72 | CC1CCCCN1Cc1c(C#N)c2ccccc2n1C (centres unmarked) | 0.574
73 | CCCc1cc(=O)[nH]c(SCCN2C(=O)c3ccccc3C2=O)n1 | -3.72
74 | O=C(c1cccc(Br)c1)N1CCN(S(=O)(=O)N2CCCCC2)CC1 | -15.9
75 | COc1ccc(C(=O)Nc2nc3ccccc3s2)c(OC)c1 | 15.6
76 | COc1ccccc1N(CCC#N)C(=O)COC(=O)CCC(=O)c1ccc(F)cc1 | -2.98
77 | COc1ccc(OC)c(NC(=O)c2ccccc2NC(=O)c2ccco2)c1 | -75.6
78 | CCCn1c(-c2ccccc2)nc2c(=O)n(C)c(=O)[nH]c21 | -4.43

Row | Structure (SMILES) | hERG current change (%, negative = inhibition) at 10uM [%]
79 | CC(CCc1ccccc1)NC(=O)C1CCC1 (centres unmarked) | -1.35
80 | Cc1ccc(C(c2nnnn2C(C)(C)C)N2CCN(C3CCCC3)CC2)cc1 (centres unmarked) | -12.8
81 | Cc1nnc(SCC(=O)Nc2cccc(S(=O)(=O)N3CCCCC3)c2)s1 | -27.4
82 | C=CCN1C(=O)C(C(C)CC)NC1=S (centres unmarked) | -6.42
83 | O=C(O)c1ccccc1OCCOc1ccccc1 | 3.63
84 | COc1ccc(OC)c(CCNC(=O)CCc2nnc3ccc(N4CCCC4)nn23)c1 | -23.9
85 | Cc1cc(C)cc(N2CN=C3SCC(=O)N3C2)c1 | -11.4
86 | CCN1CCN(C(=O)c2ccc(OC)c(S(=O)(=O)Nc3ccc(C)cc3)c2)CC1 | -18.4
87 | CCCc1ccccc1OCCNS(=O)(=O)c1cc2c(cc1C)OCC(=O)N2 | 1.01
88 | Cn1nc(N)c2c(-c3ccccc3)c(C#N)c(N)nc21 | 7.4
89 | COc1ccccc1C(=O)Nc1ccc2c(c1)CC1(C(=O)N(C)C(=O)N(C)C1=O)C1CCCN21 (centres unmarked) | -26.9
90 | CCCc1cc(=O)oc2cc(OCC(=O)NCc3ccccn3)ccc12 | -12.4
91 | Cc1ccc(S(=O)(=O)N2CCOCC2)cc1C(=O)NCc1ccc2c(c1)OCO2 | -27.6
92 | O=C(Oc1coc(CSc2ncccn2)cc1=O)c1ccccc1[N+](=O)[O-] | 14.4
93 | COc1cc2c(cc1OC)CN(Cc1cc(=O)oc3cc(C)c(C)cc13)CC2 | -37.6
94 | CC1=NN(C(N)=S)C(=O)C1N=Nc1cccc2ccccc12 (centres unmarked) | 25.4
95 | Cc1cc(C)cc(C(=O)NCc2ccc3c(c2)OCO3)c1 | 16.2
96 | Cc1ccccc1C1=NC(c2ccc(F)cc2F)ON1 (centres unmarked) | -4.54
97 | O=C(NCc1cccs1)c1noc2c1CCCC2 | -2.52
98 | O=C(CCCCCN1C(=O)[C@@H]2Cc3ccccc3CN2C1=O)Nc1ccccc1Cl | -15.5
99 | O=C(Nc1ccccc1NS(=O)(=O)c1ccc(F)cc1)C1CCC1 | 11.3
100 | COc1ccc(-n2c(C)nc3c(cnn3-c3ccc(Cl)cc3)c2=O)cc1 | 3.26
101 | COC(=O)c1cnn2c(C)c(Cc3cccc(F)c3)c(C)nc12 | -10.4
102 | O=C(c1ccc(S(=O)(=O)N2CCOCC2)cc1)N1CCN(c2ccccc2)CC1 | -15.7
103 | CN=Cc1sc2ccccc2c1O | 3.96
104 | CS(=O)(=O)N1CCc2cc(C(=O)N3CCN(c4ccccc4)CC3)ccc21 | -4.75
